# Reference: the supplement of paper PMC8728848
# The list shows a part of the results.
# B1: rAAL-2 (Agrocybe aegerita) (protein)
# chain: MTSNVITQDLPIPVASRGFADIVGFGLDGVVIGRNAVNLQPFLAVKNFAQNAGGWLTTKHVRLIADTTGTGKGDIVGFGNAGVYVSVNNGKNTFADPPKMVIANFGYDAGGWRVEKHLRYLADIRKIGRADIIGFGEKGVLVSRNNGGLNFGPATLVLKDFGYDAGGWRLDRHLRFLADVTGNGHLDIVGFGDKHVFISRNNGDGTFAPAKSVIDNFCIDAGGWKIGDHPRFVADLTGDGTADIIGCGKAGCWVALNNGGGVFGQVKLVINDFGTDKGWQAAKHPRFIADLTGNGRGDVVGFGNAGVYVALNNGDGTFQSAKLVLKDFGVQQGWTVSKHRRFVVDLTGDGCADIIGFGEKETLVSYNDGKGNFGPVKALTNDFSFSGGKWAPETTVCWMANLDSSRH
# Legend:
# Experiment in all cases: glycan array binding signal (z-score within array); higher = stronger binding
# Settings in all cases: glycan notation: IUPAC condensed, linker removed
# [1] = target: Neu5Ac(a2-8)Neu5Ac(a2-3)Gal(b1-3)GalNAc(b1-4)[Neu5Ac(a2-8)Neu5Ac(a2-3)]Gal(b1-4)Glc
# Outline: (§1)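 Glycan array data came from 3228 arrays in the Consortium for Functional Glycomics database, and only arrays with an available protein sequence were kept. Glycan names were put into IUPAC-condensed notation, and columns mapping to the same glycan were averaged. The binding signal is a within-array Z-score, averaged across arrays of one protein sequence run at different concentrations or buffers and across linkers. A negative Z-score can be read as non-binding.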
# [2] = target: Neu5Ac(a2-8)Neu5Ac(a2-3)Gal(b1-4)Glc
# Outline: as §1
# [3] = target: Neu5Ac(a2-8)Neu5Ac(a2-3)Gal(b1-4)GlcNAc
# Outline: as §1
# [4] = target: Neu5Ac(a2-8)Neu5Ac(a2-3)[Gal(b1-3)GalNAc(b1-4)]Gal(b1-4)Glc
# Outline: as §1
# [5] = target: Neu5Ac(a2-8)Neu5Ac(a2-3)[GalNAc(b1-4)]Gal(b1-4)Glc
# Outline: as §1
# [6] = target: Neu5Ac(a2-8)Neu5Ac(a2-8)Neu5Ac
# Outline: as §1
# [7] = target: Neu5Ac(a2-8)Neu5Ac(a2-8)Neu5Ac(a2-3)Gal(b1-4)Glc
# Outline: as §1
# [8] = target: Neu5Ac(a2-8)Neu5Ac(a2-8)Neu5Ac(a2-3)[Gal(b1-3)GalNAc(b1-4)]Gal(b1-4)Glc
# Outline: as §1
# [9] = target: Neu5Ac(a2-8)Neu5Ac(a2-8)Neu5Ac(a2-3)[GalNAc(b1-4)]Gal(b1-4)Glc
# Outline: as §1
# [10] = target: Neu5Ac(a2-8)Neu5Ac(a2-8)Neu5Ac(a2-8)Neu5Ac(a2-3)[GalNAc(b1-4)]Gal(b1-4)Glc
# Outline: as §1
# [11] = target: Neu5Ac(a2-8)Neu5Gc(a2-3)Gal(b1-4)GlcNAc
# Outline: as §1
# [12] = target: Neu5Ac(b2-6)Gal(b1-4)GlcNAc
# Outline: as §1
# [13] = target: Neu5Ac(b2-6)GalNAc
# Outline: as §1
# [14] = target: Neu5Ac9Ac(a2-3)Gal(b1-3)GlcNAc
# Outline: as §1
# [15] = target: Neu5Ac9Ac(a2-3)Gal(b1-4)GlcNAc
# Outline: as §1
# [16] = target: Neu5Ac9Ac(a2-6)Gal(b1-4)GlcNAc
# Outline: as §1
# [17] = target: Neu5Gc(a2-3)Gal(b1-3)GlcNAc
# Outline: as §1
# [18] = target: Neu5Gc(a2-3)Gal(b1-3)[Fuc(a1-4)]GlcNAc
# Outline: as §1
# [19] = target: Neu5Gc(a2-3)Gal(b1-4)Glc
# Outline: as §1
# [20] = target: Neu5Gc(a2-3)Gal(b1-4)GlcNAc
# Outline: as §1
# [21] = target: Neu5Gc(a2-3)Gal(b1-4)GlcNAc(b1-3)Gal(b1-4)GlcNAc(b1-2)Man(a1-3)[Neu5Gc(a2-3)Gal(b1-4)GlcNAc(b1-3)Gal(b1-4)GlcNAc(b1-2)Man(a1-6)]Man(b1-4)GlcNAc(b1-4)GlcNAc
# Outline: as §1
# [22] = target: Neu5Gc(a2-3)Gal(b1-4)[Fuc(a1-3)]GlcNAc
# Outline: as §1
# [23] = target: Neu5Gc(a2-6)Gal(b1-4)GlcNAc
# Outline: as §1
# [24] = target: Neu5Gc(a2-6)GalNAc
# Outline: as §1
# [25] = target: Neu5Gc(a2-8)Neu5Ac(a2-3)Gal(b1-4)GlcNAc
# Outline: as §1
# [26] = target: Neu5Gc(a2-8)Neu5Gc(a2-3)Gal(b1-4)GlcNAc
# Outline: as §1
# [27] = target: Neu5Gc(a2-8)Neu5Gc(a2-3)Gal(b1-4)GlcNAc(b1-3)Gal(b1-4)GlcNAc
# Outline: as §1
# [28] = target: Neu5Gc(a2-8)Neu5Gc(a2-6)Gal(b1-4)GlcNAc
# Outline: as §1
# [29] = target: Neu5Gc(b2-6)Gal(b1-4)GlcNAc
# Outline: as §1
binder,measurement,setting,value
B1,glycan array binding signal (z-score),[1],-0.072
same,glycan array binding signal (z-score),[2],-0.188
same,glycan array binding signal (z-score),[3],-0.544
same,glycan array binding signal (z-score),[4],-0.139
same,glycan array binding signal (z-score),[5],-0.331
same,glycan array binding signal (z-score),[6],-0.104
same,glycan array binding signal (z-score),[7],-0.296
same,glycan array binding signal (z-score),[8],-0.542
same,glycan array binding signal (z-score),[9],-0.33
same,glycan array binding signal (z-score),[10],-0.141
same,glycan array binding signal (z-score),[11],-0.124
same,glycan array binding signal (z-score),[12],-0.239
same,glycan array binding signal (z-score),[13],-0.401
same,glycan array binding signal (z-score),[14],-0.184
same,glycan array binding signal (z-score),[15],-0.139
same,glycan array binding signal (z-score),[16],-0.211
same,glycan array binding signal (z-score),[17],-0.313
same,glycan array binding signal (z-score),[18],-0.347
same,glycan array binding signal (z-score),[19],-0.245
same,glycan array binding signal (z-score),[20],-0.263
same,glycan array binding signal (z-score),[21],-0.064
same,glycan array binding signal (z-score),[22],-0.291
same,glycan array binding signal (z-score),[23],-0.326
same,glycan array binding signal (z-score),[24],-0.28
same,glycan array binding signal (z-score),[25],-0.247
same,glycan array binding signal (z-score),[26],-0.28
same,glycan array binding signal (z-score),[27],-0.178
same,glycan array binding signal (z-score),[28],-0.608
same,glycan array binding signal (z-score),[29],-0.084
